Data published in the supplement of paper PMC7125110.
± gives the standard error. Variants at the background level are over-represented here.

B1: glmS ribozyme (parent)
chain: AUAAAAGCGCCAGAACUACAGAAAUGUAGUUGACGAGGAGGAGGUUUAUCGAAUUUUCGGCGGAUGCCUCCAAA

Variants of: B1
Test: self-cleavage kobs at 10000 uM GlcN6P; higher = faster cleavage; RNA array
Details: with glucosamine-6-phosphate
Method in brief: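 Tracking of barcoded ribozyme variants used a hybridised Cy3 probe at 37 °C, after in situ transcription by E. coli RNA polymerase on sequenced MiSeq chips. The flowed solution held 40 μM to 10 mM glucosamine-6-phosphate in HEPES/KCl/Mg(OAc)2 buffer, and imaging ran over ~14 h. kobs was taken from exponential decay fits of normalised per-tile medians, and kcat and KM from weighted Michaelis–Menten fits.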

| Variant | self-cleavage kobs at 10000 uM GlcN6P [s⁻¹] |
| --- | --- |
| A14U A53C C67U | 0.000208 ± 3.8e-05 |
| G60U C61U C71G | < 1e-05 |
| C11G G29U C34A A36U G37U G44C C68U | < 1e-05 |
| G9C C16U G60C | < 1e-05 |
| A15G G51U C71A | < 1e-05 |
| A12G A14C A15G | 0.000141 ± 3e-05 |
| A48U A52C G60A A64C | < 1e-05 |
| A6U G40U G43A G59U | < 1e-05 |
| C16A G41A G51C | < 1e-05 |
| G13U G35U C58G C61G | < 1e-05 |
| C34A A42G G43C G51A | < 1e-05 |
| A48G C58U A64U | < 1e-05 |
| C8G C11U C58A | < 1e-05 |
| C11G A53U G60A G63A A64U | < 1e-05 |
| A33U A52U C71G | < 1e-05 |
| C34U A42U G63C C67U C71U | < 1e-05 |
| U31A A48U C58A C68U | < 1e-05 |
| A42C G66A C67A C68U C71U | < 1e-05 |
| G9U G29A U69C | < 1e-05 |
| C10A G60C G66U | < 1e-05 |
| G9U U30C U31C G43A U65A C68U C71A | < 1e-05 |
| G13C C16A A36U | < 1e-05 |

| Variant | self-cleavage kobs at 10000 uM GlcN6P [s⁻¹] |
| --- | --- |
| C10G A15U A48C U56G | < 1e-05 |
| G59U C61G | < 1e-05 |
| A33G G62U C68U | < 1e-05 |
| U31A G43C C68U | 0.000192 ± 5.2e-05 |
| A12G U47G A48U G60A | < 1e-05 |
| G13U U54A U56C | 0.000163 ± 3.3e-05 |
| U45G G59A C71A | < 1e-05 |
| A12G G35U A53G | < 1e-05 |
| C16G G29A G63A | < 1e-05 |
| U55G C61A C71G | < 1e-05 |
| G38U G41A U45G U56A G59U | < 1e-05 |
| G32A A33U A36C | < 1e-05 |
| G7U C11A C50A | < 1e-05 |
| C16A U49G C68A | < 1e-05 |
| C50U A53U C61U C67U | < 1e-05 |
| A15G U49A G62U | < 1e-05 |
| G9C G35C C61U | < 1e-05 |
| G41A C50U U55G G63A | < 1e-05 |
| C11U A48C G60U G63U | < 1e-05 |
| G37C A42G U65C | < 1e-05 |
| C10G G29C U30C G35C C70U | < 1e-05 |
| A33U G35C G62U C67U | < 1e-05 |

| Variant | self-cleavage kobs at 10000 uM GlcN6P [s⁻¹] |
| --- | --- |
| A12U C16U G38U A42U | < 1e-05 |
| A15U A33G C61A | < 1e-05 |
| U57A G60A C61A | < 1e-05 |
| G37U C58U | < 1e-05 |
| U31G A53G U69C | 0.00324 ± 0.00093 |
| A14U U31C G38U | < 1e-05 |
| G35U G63U A64G | < 1e-05 |
| G7A A39U G43U | < 1e-05 |
| G7C G35A A42C | < 1e-05 |
| G9C A53G C71U | < 1e-05 |
| C11U G29C A33U G60C | < 1e-05 |
| C11U A15G C16U C50G U54G U56A U69C | < 1e-05 |
| G13U C16A U27C U30A C50A | < 1e-05 |
| A12G A36C C67G | < 1e-05 |
| G35C G41A U45A | < 1e-05 |
| A36C C50A U65A | < 1e-05 |
| G40A C58A G62U | < 1e-05 |
| G7C U31C A36G G40C C68G | < 1e-05 |
| G40A U45A G66A | 0.00649 ± 0.0018 |
| C8A A12G A36U A53U | < 1e-05 |
